In article PMC4336329 (PLoS ONE, 2015):
Screen size: about 310,000 compounds; about 2,200 (0.71%) showed an effect of 50% or more. Effects have a minus sign here. This is one part of the list.

These molecules were tested against human ether-à-go-go-related gene (hERG) potassium channel (human, UniProt Q12809) (assay: primary screen, population patch clamp on CHO cells stably expressing hERG).
Sequence of human ether-à-go-go-related gene (hERG) potassium channel (Q12809 whole entry, looked up): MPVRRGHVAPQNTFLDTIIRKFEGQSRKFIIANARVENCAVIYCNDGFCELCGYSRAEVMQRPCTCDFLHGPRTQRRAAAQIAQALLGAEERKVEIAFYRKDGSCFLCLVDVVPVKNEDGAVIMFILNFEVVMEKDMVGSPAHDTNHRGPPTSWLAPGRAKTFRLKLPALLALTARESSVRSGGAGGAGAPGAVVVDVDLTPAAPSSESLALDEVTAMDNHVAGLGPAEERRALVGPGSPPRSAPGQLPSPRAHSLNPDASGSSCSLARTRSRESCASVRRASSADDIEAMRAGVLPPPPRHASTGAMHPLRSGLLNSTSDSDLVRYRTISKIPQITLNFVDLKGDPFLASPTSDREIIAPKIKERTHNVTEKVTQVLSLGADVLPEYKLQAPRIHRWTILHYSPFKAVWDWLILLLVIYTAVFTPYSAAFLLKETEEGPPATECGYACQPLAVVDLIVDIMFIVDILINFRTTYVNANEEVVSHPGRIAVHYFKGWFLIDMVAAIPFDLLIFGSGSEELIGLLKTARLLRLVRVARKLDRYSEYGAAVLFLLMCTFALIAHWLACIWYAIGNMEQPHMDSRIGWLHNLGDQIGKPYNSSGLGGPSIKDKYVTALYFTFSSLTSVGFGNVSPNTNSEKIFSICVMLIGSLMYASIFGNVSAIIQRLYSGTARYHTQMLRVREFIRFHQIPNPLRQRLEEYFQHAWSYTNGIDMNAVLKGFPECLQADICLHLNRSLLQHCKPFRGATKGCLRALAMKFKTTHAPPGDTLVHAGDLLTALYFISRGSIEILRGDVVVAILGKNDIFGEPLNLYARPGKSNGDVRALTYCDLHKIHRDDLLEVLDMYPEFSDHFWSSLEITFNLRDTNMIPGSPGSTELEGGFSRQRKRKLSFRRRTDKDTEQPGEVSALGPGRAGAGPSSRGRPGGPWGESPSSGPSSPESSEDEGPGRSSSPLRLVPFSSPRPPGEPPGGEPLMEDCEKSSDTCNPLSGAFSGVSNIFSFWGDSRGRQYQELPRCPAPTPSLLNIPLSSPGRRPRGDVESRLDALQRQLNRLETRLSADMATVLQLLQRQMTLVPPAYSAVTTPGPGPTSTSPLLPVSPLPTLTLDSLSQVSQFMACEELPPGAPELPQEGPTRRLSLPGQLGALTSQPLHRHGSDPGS

Structure (SMILES) | hERG current change (%, negative = inhibition) at 1uM
COc1ccccc1NC(=O)CSC1=NCCN1.Cl | 13.8%
O=C(Nc1ccc(C(=O)N2CCCC2)cc1)c1cccc(C(F)(F)F)c1 | 8.56%
CCOc1ccc(C(=O)NCCCN2CCOCC2)cc1OCC | 15.8%
O=C(NCc1ccccc1)c1cnc(Cl)c(Cl)c1 | 8.31%
O=C(Cn1ncc2c1-c1ccccc1OC2)N1CCN(Cc2ccc3c(c2)OCO3)CC1 | -31%
CC(C)COc1ccc(C(=O)Nc2scc(-c3ccc(Cl)cc3Cl)c2C(N)=O)cc1 | 10.1%
CCCCCCNC(=O)C(=O)NCCc1ccc(Cl)cc1 | 9.73%
Cc1ccc(C(C)C)c(OCC(=O)NC(=S)Nc2ccccc2N2CCOCC2)c1 | 6.15%
O=S(=O)(N1CCOCC1)n1nnc2ccccc21 | 11.4%
COC(=O)Cc1ccc(NC(=S)NCc2cccc(OC)c2)cc1 | 9.47%
CNC(=O)C1CC(=O)N/C(=N/N=C(\C)c2cccs2)S1 (stereo not drawn) | 15.2%
CC(=O)Oc1c(-c2ccc(Br)o2)oc2ccccc2c1=O | 13%
CCN(CC)C(=O)CSc1nc(N)c(C#N)c(-c2cccs2)c1C#N | 15.7%
COc1cccc(Nc2nc3ccccc3n2C(C)C)c1 | 16.5%
CN(C(=O)COC(=O)c1c2c(nc3ccccc13)/C(=C/c1cccc([N+](=O)[O-])c1)CCC2)C1CCS(=O)(=O)C1 (stereo not drawn) | 0.789%
COc1ccc(O)c(C2=Nc3ccccc3N=C(c3ccco3)C2)c1 | 10.5%
C=CCn1c(Cc2c(C)[nH]c3ccccc23)nnc1SCC(=O)NCc1ccc(F)cc1 | 2.02%
O=c1c2c(nc3nc(COc4ccccc4)[nH]n13)CCC2 | 4.63%
CC1CCN(CC(O)COc2ccc(OCC(O)CN3CCC(C)CC3)cc2)CC1 (stereo not drawn) | 5.25%
CCOc1cc(C(N)=O)cc(Br)c1OCc1ccccc1 | 9.16%
C/C(=N/NS(=O)(=O)c1ccc(C)c(C)c1)c1ccncc1 | 6.5%
COc1ccccc1N1CCN(C(=O)CSc2ccc3c(C)cc(C)nc3n2)CC1 | 7.83%
CCC(=O)Nc1ccc(Cl)c(NC(=S)NC(=O)c2cc3ccccc3o2)c1 | 3.1%

Structure (SMILES) | hERG current change (%, negative = inhibition) at 1uM
COc1ccc(NC(=O)CSc2ncccc2C(=O)OC(C)C)cc1OC | 4.36%
Cc1ccc(S(=O)(=O)N/N=C\c2ccc(Cl)c([N+](=O)[O-])c2)cc1 | 21%
CCC(=O)N1CCc2cc(OC)c(OC)cc2C1COc1ccc(F)cc1 (stereo not drawn) | 8.59%
CCOC(=O)c1c(/N=C/N(C)C)sc(C(=O)OC)c1C | 10.9%
CSc1nc2ncc(C#N)cn2n1 | 14.2%
CN1CCN(CCc2cn3ncc(C#N)c3nc2-c2ccc(F)cc2)CC1 | 0.111%
Cn1c(SCC2CCCO2)nnc1-c1cccc([N+](=O)[O-])c1 (stereo not drawn) | 16.7%
Cc1c(N=C2N=C(NC(=O)c3cccs3)c3ccccc32)c(=O)n(-c2ccccc2)n1C | 2.36%
Cc1ccc(C(=O)NC(NCc2ccco2)C(Cl)(Cl)Cl)cc1 (stereo not drawn) | 8.23%
Cc1c(C2N3CC4(C)CN2CC(C)(C3)C4=O)c2ccccc2n1C (stereo not drawn) | -15.5%
CCN(CCCNC(=O)C1CCCN(S(=O)(=O)c2cnc[nH]2)C1)c1ccccc1 (stereo not drawn) | 4.47%
COc1cccc(-n2c(C)nnc2SCC(=O)Nc2ccccc2N2CCOCC2)c1 | -11.9%
COC(=O)c1ccccc1S(=O)(=O)N(Cc1cc2ccc(OC)cc2[nH]c1=O)CC1CCCO1 (stereo not drawn) | -1.66%
COC(=O)c1[nH]c2cccc(OC)c2c1NC(=O)CCN1CCC(C(N)=O)CC1 | -0.381%
CCOC(=O)c1cn(Cc2cccc(Cl)c2)c2cc(C)nn2c1=O | -0.36%
O=C(c1ccc(Cl)s1)N(Cc1nnc(-c2ccccc2Cl)o1)C1CC1 | 11.3%
CCOC(=O)NC(CC(=O)O)c1ccc(OCC)cc1 (stereo not drawn) | 0.656%
CC1Oc2ccccc2C(=O)N(CC(=O)c2ccc3c(c2)OCCO3)C1=O (stereo not drawn) | 11.5%
Cn1ccnc1SCC(=O)NC1CCCCC1 | 16.4%
Cc1onc(-c2c(Cl)cccc2Cl)c1C(=O)N1CCCc2ccccc21 | 9.33%
CC(C)c1nnc2c(N(C)S(=O)(=O)c3ccccc3)nc3ccccc3n12 | -2%
CC(NC(=O)CCCOc1ccc(Cl)cc1)c1ccccc1 (stereo not drawn) | 4.38%
O=C(O)CCCN1C(=O)/C(=C\c2ccc(-c3nc4ccccc4s3)o2)SC1=S | 7.53%

Structure (SMILES) | hERG current change (%, negative = inhibition) at 1uM
COc1cccc(CNC(=O)CSc2ccc(-c3ccncc3)nn2)c1 | 4.48%
CN(CC(=O)NCC(=O)Nc1ccc(F)c(F)c1F)C1CCS(=O)(=O)C1 (stereo not drawn) | 5.72%
CCCCCCCc1c(O)nc(SCC(=O)O)[nH]c1=O | 12.5%
COc1cccc(NC(=O)[C@@H]2CCCN2S(=O)(=O)c2cccc3cccnc23)c1 | 11%
Cc1nnc(NC(=O)c2cccc(NC(=O)C(C)C)c2)s1 | 9.85%
CCOC(=O)c1sc(N2C(=O)C(O)=C(C(=O)c3ccco3)C2c2ccc([N+](=O)[O-])cc2)nc1C (stereo not drawn) | 10.8%
CCC(OC(=O)c1cccs1)C(=O)NCc1ccc(C)cc1 (stereo not drawn) | 15.6%
Cc1ccc(CNC(=O)C2C3C=CC4(CN(Cc5cccnc5)C(=O)C24)O3)cc1 (stereo not drawn) | 8.86%
Fc1ccccc1CSc1nncn1NCc1cccs1 | 13.3%
Cc1ccc(C(=O)Nc2cc(Cl)ccc2-n2cncn2)s1 | 2.82%
O=C(OCc1c(F)cccc1Cl)c1cccnc1Cl | 9.98%
CCOCc1c(C(=O)NC2CCCCCC2)oc2ccccc12 | -1.11%
Cc1cccc2c1NC(=O)C2=Nc1ccc(Cl)cc1 | 18.7%
COc1ccc(NC(=S)N(CCc2nc3cc(C)c(C)cc3[nH]2)Cc2cccnc2)cc1 | 9.27%
COc1ccccc1C(=O)N1CCCN(C(=O)c2ccccc2OC)CC1 | 16%
Cn1cccc1/C=C1/SC(=S)N(CC(=O)O)C1=O | 9.11%
COc1ccc(C(=O)Nc2cccc(-c3ccc4nncn4n3)c2)cc1 | 7.11%
COc1cc(NC(=O)CCN2CCN(C/C=C/c3ccccc3)CC2)cc(OC)c1 | -36.8%
CCN(CC)C(=O)C1CCN(Cc2cn(C)nc2-c2ccc(Oc3ccccc3)cc2)CC1 | 3.2%
COc1ccc(-c2c[n+]3c(n2-c2ccccc2)CCCCC3)cc1.[Br-] | 2.74%
COc1ccc(S(=O)(=O)Nc2c(C)n(C)n(-c3ccccc3)c2=O)c(Cl)c1Cl | -4.03%
CC(=O)Nc1nc(C)nc(-c2ccccc2)c1C(C)=O | 3.7%
O=C(COC(=O)/C=C/c1ccc(Cl)cc1)NC(=O)NCc1ccccc1 | 5.01%

Structure (SMILES) | hERG current change (%, negative = inhibition) at 1uM
N/C(=N\OC(=O)c1cccs1)c1cccnc1 | 16.9%
COc1ccc(OC)c(N/C(C)=C/C(=O)c2ccccc2)c1 | 5.49%
COc1ccccc1S(=O)Cc1ccc(C(=O)NC2CCCC2)o1 (stereo not drawn) | 5.17%
COc1ccc(OCc2cc(C(=O)NC3CCOCC3)no2)c2ccccc12 | 11.8%
O=C(CSc1nnc(SCc2cccc3ccccc23)s1)c1ccc2c(c1)OCO2 | 17.7%
COc1ccc(NC(=O)C2CCN(S(=O)(=O)c3ccc(OC)c(OC)c3)CC2)c(OC)c1 | -7.41%
O=C(NC(=O)c1c(F)cccc1F)Nc1cc(Cl)c(F)c(Cl)c1F | 14.8%
C=CC(=C)CC(NC)c1ccccc1 (stereo not drawn) | 9.69%
CCC1(C)N(O)C(C)(C)C(c2ccc(F)cc2)=[N+]1[O-] (stereo not drawn) | 6.41%
Cc1cc(C)n(NC(=S)NC2CCCC2)c(=O)c1C#N | -0.0307%
CC(C)(C)NC(=O)NC(=O)CSc1nncs1 | 8.5%
CCCN(CC1CC1)C(=O)CSc1ncnc2sccc12 | -13.9%
CCc1cc(=O)oc2cc(C)cc(OC(C)C(=O)NCCCN3CCCC3=O)c12 (stereo not drawn) | 13.2%
Cc1cc(C)n(CC(=O)N2CCCC(N3CCN(c4ccccc4C)CC3)C2)n1 (stereo not drawn) | 7.09%
CC(C)(C)c1ccc(S(=O)(=O)NCc2ccc(C(=O)N3CCCC3)cc2)cc1 | 6.34%
CCOC(=O)C(CCCCC(NC(C)=O)(C(=O)OCC)C(=O)OCC)(NC(C)=O)C(=O)OCC | 10.8%
Cc1sc(NC(=O)c2ccccc2)c(C(c2ccc(Cl)cc2)N2CCN(CCO)CC2)c1C (stereo not drawn) | 4.95%
Cc1ccc(C)c(N2CCN(C(=O)CCC(=O)N3CCOc4ccc(Cl)cc43)CC2)c1 | 0.277%
Cc1ccc(S(=O)(=O)N2CCOCC2)c(C)c1-n1cnnn1 | 6.02%
CCOc1ccc(CCNC(=O)COC(=O)COc2ccccc2C)cc1OCC | 19.9%
COc1ccc(CCNCc2ccccc2)cc1.O=C(O)C(=O)O | -3.3%
